Some of the results follow.
Tests used:
Assay in all cases: glycan array binding signal (z-score within array); higher = stronger binding
Conditions in all cases: glycan notation: IUPAC condensed, linker removed
[1] = biological target: GlcNAc(a1-4)Gal(b1-3)GlcNAc
In short: (§1)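 From the Consortium for Functional Glycomics database, 3228 arrays were curated, keeping only those whose protein sequence was available. Binding is given as a within-array Z-score averaged across arrays sharing a protein sequence and across linkers. Negative Z-scores can be read as non-binding.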

[2] = biological target: GlcNAc(a1-4)Gal(b1-4)GalNAc
In short: as §1

[3] = biological target: GlcNAc(a1-4)Gal(b1-4)GlcNAc
In short: as §1

[4] = biological target: GlcNAc(a1-4)Gal(b1-4)GlcNAc(b1-3)Gal(b1-4)Glc
In short: as §1

[5] = biological target: GlcNAc(a1-4)Gal(b1-4)GlcNAc(b1-3)Gal(b1-4)GlcNAc
In short: as §1

[6] = biological target: GlcNAc(a1-4)Gal(b1-4)GlcNAc(b1-3)Gal(b1-4)GlcNAc(b1-3)Gal(b1-4)GlcNAc
In short: as §1

[7] = biological target: GlcNAc(a1-4)Gal(b1-4)GlcNAc(b1-3)Gal(b1-4)[Fuc(a1-3)]GlcNAc(b1-3)Gal(b1-4)[Fuc(a1-3)]GlcNAc
In short: as §1

[8] = biological target: GlcNAc(a1-6)Gal(b1-4)GlcNAc
In short: as §1

[9] = biological target: GlcNAc(b1-2)Gal(b1-3)GalNAc
In short: as §1

[10] = biological target: GlcNAc(b1-2)Man(a1-3)[GlcNAc(b1-2)Man(a1-6)]Man(b1-4)GlcNAc(b1-4)GlcNAc
In short: as §1

[11] = biological target: GlcNAc(b1-2)Man(a1-3)[GlcNAc(b1-2)Man(a1-6)]Man(b1-4)GlcNAc(b1-4)[Fuc(a1-6)]GlcNAc
In short: as §1

[12] = biological target: GlcNAc(b1-2)Man(a1-3)[GlcNAc(b1-4)][GlcNAc(b1-2)Man(a1-6)]Man(b1-4)GlcNAc(b1-4)GlcNAc
In short: as §1

[13] = biological target: GlcNAc(b1-2)Man(a1-3)[GlcNAc(b1-4)][GlcNAc(b1-2)Man(a1-6)]Man(b1-4)GlcNAc(b1-4)[Fuc(a1-6)]GlcNAc
In short: as §1

[14] = biological target: GlcNAc(b1-2)[GlcNAc(b1-4)]Man(a1-3)[GlcNAc(b1-2)Man(a1-6)]Man(b1-4)GlcNAc(b1-4)GlcNAc
In short: as §1

[15] = biological target: GlcNAc(b1-2)[GlcNAc(b1-4)]Man(a1-3)[GlcNAc(b1-4)][GlcNAc(b1-2)Man(a1-6)]Man(b1-4)GlcNAc(b1-4)GlcNAc
In short: as §1

[16] = biological target: GlcNAc(b1-2)[GlcNAc(b1-4)]Man(a1-3)[GlcNAc(b1-4)][GlcNAc(b1-2)[GlcNAc(b1-6)]Man(a1-6)]Man(b1-4)GlcNAc(b1-4)GlcNAc
In short: as §1

[17] = biological target: GlcNAc(b1-2)[GlcNAc(b1-4)]Man(a1-3)[GlcNAc(b1-4)][GlcNAc(b1-2)[GlcNAc(b1-6)]Man(a1-6)]Man(b1-4)GlcNAc(b1-4)[Fuc(a1-6)]GlcNAc
In short: as §1

[18] = biological target: GlcNAc(b1-2)[GlcNAc(b1-6)]Man(a1-6)[GlcNAc(b1-2)Man(a1-3)]Man(b1-4)GlcNAc(b1-4)GlcNAc
In short: as §1

[19] = biological target: GlcNAc(b1-2)[GlcNAc(b1-6)]Man(a1-6)[GlcNAc(b1-2)Man(a1-3)]Man(b1-4)GlcNAc(b1-4)[Fuc(a1-6)]GlcNAc
In short: as §1

[20] = biological target: GlcNAc(b1-2)[GlcNAc(b1-6)]Man(a1-6)[GlcNAc(b1-4)][GlcNAc(b1-2)Man(a1-3)]Man(b1-4)GlcNAc(b1-4)GlcNAc
In short: as §1

GlcNAc(b1-3)Fuc = biological target: GlcNAc(b1-3)Fuc
In short: as §1

GlcNAc(b1-3)Gal = biological target: GlcNAc(b1-3)Gal
In short: as §1

[21] = biological target: GlcNAc(b1-3)Gal(b1-3)GalNAc
In short: as §1

GlcNAc(b1-3)Gal(b1-4)Glc = biological target: GlcNAc(b1-3)Gal(b1-4)Glc
In short: as §1

[22] = biological target: GlcNAc(b1-3)Gal(b1-4)GlcNAc
In short: as §1

[23] = biological target: GlcNAc(b1-3)Gal(b1-4)GlcNAc(b1-2)Man(a1-3)[GlcNAc(b1-3)Gal(b1-4)GlcNAc(b1-2)Man(a1-6)]Man(b1-4)GlcNAc(b1-4)GlcNAc
In short: as §1

[24] = biological target: GlcNAc(b1-3)Gal(b1-4)GlcNAc(b1-2)Man(a1-3)[GlcNAc(b1-3)Gal(b1-4)GlcNAc(b1-2)Man(a1-6)]Man(b1-4)GlcNAc(b1-4)[Fuc(a1-6)]GlcNAc
In short: as §1

[25] = biological target: GlcNAc(b1-3)Gal(b1-4)GlcNAc(b1-2)[GlcNAc(b1-3)Gal(b1-4)GlcNAc(b1-6)]Man(a1-6)[GlcNAc(b1-3)Gal(b1-4)GlcNAc(b1-2)Man(a1-3)]Man(b1-4)GlcNAc(b1-4)GlcNAc
In short: as §1

[26] = biological target: GlcNAc(b1-3)Gal(b1-4)GlcNAc(b1-3)Gal(b1-4)GlcNAc
In short: as §1

[27] = biological target: GlcNAc(b1-3)Gal(b1-4)GlcNAc(b1-3)Gal(b1-4)GlcNAc(b1-2)Man(a1-3)[GlcNAc(b1-3)Gal(b1-4)GlcNAc(b1-3)Gal(b1-4)GlcNAc(b1-2)Man(a1-6)]Man(b1-4)GlcNAc(b1-4)GlcNAc
In short: as §1

[28] = biological target: GlcNAc(b1-3)Gal(b1-4)GlcNAc(b1-3)Gal(b1-4)GlcNAc(b1-2)Man(a1-3)[GlcNAc(b1-3)Gal(b1-4)GlcNAc(b1-3)Gal(b1-4)GlcNAc(b1-2)Man(a1-6)]Man(b1-4)GlcNAc(b1-4)[Fuc(a1-6)]GlcNAc
In short: as §1

[29] = biological target: GlcNAc(b1-3)Gal(b1-4)GlcNAc(b1-3)Gal(b1-4)GlcNAc(b1-2)[GlcNAc(b1-3)Gal(b1-4)GlcNAc(b1-3)Gal(b1-4)GlcNAc(b1-6)]Man(a1-6)[GlcNAc(b1-3)Gal(b1-4)GlcNAc(b1-3)Gal(b1-4)GlcNAc(b1-2)Man(a1-3)]Man(b1-4)GlcNAc(b1-4)[Fuc(a1-6)]GlcNAc
In short: as §1

[30] = biological target: GlcNAc(b1-3)Gal(b1-4)GlcNAc(b1-3)Gal(b1-4)GlcNAc(b1-3)Gal(b1-4)GlcNAc(b1-2)Man(a1-3)[GlcNAc(b1-3)Gal(b1-4)GlcNAc(b1-3)Gal(b1-4)GlcNAc(b1-3)Gal(b1-4)GlcNAc(b1-2)Man(a1-6)]Man(b1-4)GlcNAc(b1-4)GlcNAc
In short: as §1

[31] = biological target: GlcNAc(b1-3)Gal(b1-4)GlcNAc(b1-3)Gal(b1-4)GlcNAc(b1-3)Gal(b1-4)GlcNAc(b1-2)Man(a1-3)[GlcNAc(b1-3)Gal(b1-4)GlcNAc(b1-3)Gal(b1-4)GlcNAc(b1-3)Gal(b1-4)GlcNAc(b1-2)Man(a1-6)]Man(b1-4)GlcNAc(b1-4)[Fuc(a1-6)]GlcNAc
In short: as §1

[32] = biological target: GlcNAc(b1-3)Gal(b1-4)GlcNAc(b1-3)Gal(b1-4)GlcNAc(b1-3)Gal(b1-4)GlcNAc(b1-2)[GlcNAc(b1-3)Gal(b1-4)GlcNAc(b1-3)Gal(b1-4)GlcNAc(b1-3)Gal(b1-4)GlcNAc(b1-6)]Man(a1-6)[GlcNAc(b1-3)Gal(b1-4)GlcNAc(b1-3)Gal(b1-4)GlcNAc(b1-3)Gal(b1-4)GlcNAc(b1-2)Man(a1-3)]Man(b1-4)GlcNAc(b1-4)[Fuc(a1-6)]GlcNAc
In short: as §1

[33] = biological target: GlcNAc(b1-3)Gal(b1-4)GlcNAc(b1-3)Gal(b1-4)GlcNAc(b1-3)Gal(b1-4)GlcNAc(b1-3)Gal(b1-4)GlcNAc(b1-2)Man(a1-3)[GlcNAc(b1-3)Gal(b1-4)GlcNAc(b1-3)Gal(b1-4)GlcNAc(b1-3)Gal(b1-4)GlcNAc(b1-3)Gal(b1-4)GlcNAc(b1-2)Man(a1-6)]Man(b1-4)GlcNAc(b1-4)GlcNAc
In short: as §1

[34] = biological target: GlcNAc(b1-3)Gal(b1-4)GlcNAc(b1-3)Gal(b1-4)GlcNAc(b1-3)Gal(b1-4)GlcNAc(b1-3)Gal(b1-4)GlcNAc(b1-2)Man(a1-3)[GlcNAc(b1-3)Gal(b1-4)GlcNAc(b1-3)Gal(b1-4)GlcNAc(b1-3)Gal(b1-4)GlcNAc(b1-3)Gal(b1-4)GlcNAc(b1-2)Man(a1-6)]Man(b1-4)GlcNAc(b1-4)[Fuc(a1-6)]GlcNAc
In short: as §1

[35] = biological target: GlcNAc(b1-3)Gal(b1-4)GlcNAc(b1-3)Gal(b1-4)GlcNAc(b1-3)Gal(b1-4)GlcNAc(b1-3)Gal(b1-4)GlcNAc(b1-2)[GlcNAc(b1-3)Gal(b1-4)GlcNAc(b1-3)Gal(b1-4)GlcNAc(b1-3)Gal(b1-4)GlcNAc(b1-3)Gal(b1-4)GlcNAc(b1-6)]Man(a1-6)[GlcNAc(b1-3)Gal(b1-4)GlcNAc(b1-3)Gal(b1-4)GlcNAc(b1-3)Gal(b1-4)GlcNAc(b1-3)Gal(b1-4)GlcNAc(b1-2)Man(a1-3)]Man(b1-4)GlcNAc(b1-4)[Fuc(a1-6)]GlcNAc
In short: as §1

B1: GS13846A-bth-444-19-444 (Bacteroides thetaiotaomicron) (protein)
chain: SCENEFDVSDKADSLISVTVNTLNNQAAYNVGETAQAELWIQRGGLKDASGKVQFVVDPLLLDSLNQEDKTNYELLPENCYEMTNTEFTVDKNELCGYITYHPEKILALSAYNETKYVLPLRLISNDLAINPARNTSFLAFTILEPIVHISNAGVYNINPDLTSTMDIQIGVPFTNKWDILCNLTEDLSLIDEYNQINKVNFTLLPENAYTAPESVTLQEGVSQITASYQLKNNLVPGNYILPIKIGSITASQGGVPNNSLVIDEESNVLFCIVKEGNKINKSGWEVIECSSEHAGNEATYMIDDNESTYWHCKFKNEAGSSVPPFHFIIDMKKEITIAQIDLLNRGDGAANNIKWVEFYASNNNSEWDKIGAGDFNDEGTRATFRYYVKSTKARYLKLIIPEGYGNNCPPAAIRELTVYGLEGNN
glycan array binding signal (z-score) [1]: -0.275
glycan array binding signal (z-score) [2]: -0.275
glycan array binding signal (z-score) [3]: -0.191
glycan array binding signal (z-score) [4]: -0.213
glycan array binding signal (z-score) [5]: -0.449
glycan array binding signal (z-score) [6]: -0.308
glycan array binding signal (z-score) [7]: 1.24
glycan array binding signal (z-score) [8]: -0.052
glycan array binding signal (z-score) [9]: -0.346
glycan array binding signal (z-score) [10]: -0.367
glycan array binding signal (z-score) [11]: -0.075
glycan array binding signal (z-score) [12]: 0.122
glycan array binding signal (z-score) [13]: -0.27
glycan array binding signal (z-score) [14]: -0.27
glycan array binding signal (z-score) [15]: -0.227
glycan array binding signal (z-score) [16]: -0.245
glycan array binding signal (z-score) [17]: -0.251
glycan array binding signal (z-score) [18]: -0.323
glycan array binding signal (z-score) [19]: -0.376
glycan array binding signal (z-score) [20]: -0.229
glycan array binding signal (z-score) (GlcNAc(b1-3)Fuc): -0.316
glycan array binding signal (z-score) (GlcNAc(b1-3)Gal): -0.392
glycan array binding signal (z-score) [21]: -0.141
glycan array binding signal (z-score) (GlcNAc(b1-3)Gal(b1-4)Glc): -0.277
glycan array binding signal (z-score) [22]: -0.403
glycan array binding signal (z-score) [23]: -0.095
glycan array binding signal (z-score) [24]: 0.401
glycan array binding signal (z-score) [25]: 0.661
glycan array binding signal (z-score) [26]: -0.066
glycan array binding signal (z-score) [27]: -0.086
glycan array binding signal (z-score) [28]: 0.103
glycan array binding signal (z-score) [29]: 0.179
glycan array binding signal (z-score) [30]: -0.284
glycan array binding signal (z-score) [31]: 0.314
glycan array binding signal (z-score) [32]: -0.081
glycan array binding signal (z-score) [33]: 0.543
glycan array binding signal (z-score) [34]: 0.213
glycan array binding signal (z-score) [35]: -0.01

From the supplement of paper PMC8728848
